The supplement of paper PMC10724272
MIC of invasive clinical C. tropicalis isolates, CLSI broth microdilution (fluconazole 0.12-256 mg/L, up to 1,024 for the azole-resistant cluster and its neighbour group; other ranges not stated); higher = less susceptible. Call: susceptible or wild type [S] / resistant or non-wild type [R] by CLSI breakpoints or cut-offs; intermediate and dose-dependent carry no call. '<=' and '>=' at the end values are inferred; the source marks only some of them. Isolates are numbered anew.

Columns and labels:
Assay in all cases: CLSI broth microdilution.
itraconazole = compound: CCC(C)n1ncn(-c2ccc(N3CCN(c4ccc(OCC5COC(Cn6cncn6)(c6ccc(Cl)cc6Cl)O5)cc4)CC3)cc2)c1=O [itraconazole]
micafungin = compound: CCCCCOc1ccc(-c2cc(-c3ccc(C(=O)N[C@H]4C[C@@H](O)[C@@H](O)NC(=O)[C@@H]5[C@@H](O)[C@@H](C)CN5C(=O)[C@H]([C@H](O)CC(N)=O)NC(=O)[C@H]([C@H](O)[C@@H](O)c5ccc(O)c(OS(=O)(=O)O)c5)NC(=O)[C@@H]5C[C@@H](O)CN5C(=O)[C@H]([C@@H](C)O)NC4=O)cc3)no2)cc1 [micafungin]
anidulafungin = compound: CCCCCOc1ccc(-c2ccc(-c3ccc(C(=O)N[C@H]4C[C@@H](O)[C@@H](O)NC(=O)[C@@H]5[C@@H](O)[C@@H](C)CN5C(=O)[C@H]([C@@H](C)O)NC(=O)[C@H]([C@H](O)[C@@H](O)c5ccc(O)cc5)NC(=O)[C@@H]5C[C@@H](O)CN5C(=O)[C@H]([C@@H](C)O)NC4=O)cc3)cc2)cc1 [anidulafungin]
posaconazole = compound: CC[C@@H]([C@H](C)O)n1ncn(-c2ccc(N3CCN(c4ccc(OC[C@@H]5CO[C@@](Cn6cncn6)(c6ccc(F)cc6F)C5)cc4)CC3)cc2)c1=O [posaconazole]
caspofungin = compound: CC[C@H](C)C[C@H](C)CCCCCCCCC(=O)N[C@H]1C[C@@H](O)[C@@H](NCCN)NC(=O)[C@@H]2[C@@H](O)CCN2C(=O)[C@H]([C@H](O)CCN)NC(=O)[C@H]([C@H](O)[C@@H](O)c2ccc(O)cc2)NC(=O)[C@@H]2C[C@@H](O)CN2C(=O)[C@H]([C@@H](C)O)NC1=O [caspofungin]
voriconazole = compound: C[C@@H](c1ncncc1F)[C@](O)(Cn1cncn1)c1ccc(F)cc1F [voriconazole]
amphotericin B = compound: C[C@@H]1[C@H](O)[C@@H](C)/C=C/C=C/C=C/C=C/C=C/C=C/C=C/[C@H](O[C@@H]2O[C@H](C)[C@@H](O)[C@H](N)[C@@H]2O)C[C@@H]2O[C@](O)(C[C@@H](O)C[C@@H](O)[C@H](O)CC[C@@H](O)C[C@@H](O)CC(=O)O[C@H]1C)C[C@H](O)[C@H]2C(=O)O [amphotericin B]
flucytosine = compound: Nc1[nH]c(=O)ncc1F [flucytosine]
fluconazole = compound: OC(Cn1cncn1)(Cn1cncn1)c1ccc(F)cc1F [fluconazole]

Candida tropicalis isolate 433 (ERG11 copies: 2, Erg11p: no key change)
MIC (itraconazole): 0.25 mg/L [S] | MIC (micafungin): 0.03 mg/L [S] | MIC (anidulafungin): 0.12 mg/L [S] | MIC (posaconazole): 0.12 mg/L [S] | MIC (caspofungin): 0.12 mg/L [S] | MIC (voriconazole): 0.12 mg/L [S] | MIC (amphotericin B): 0.5 mg/L [S] | MIC (flucytosine): ≤ 0.06 mg/L [S] | MIC (fluconazole): 2 mg/L [S]

Candida tropicalis isolate 434 (ERG11 copies: 6, Erg11p: Y132F, S154F, P397S (heterozygous))
MIC (itraconazole): 0.5 mg/L [S] | MIC (micafungin): 0.03 mg/L [S] | MIC (anidulafungin): 0.06 mg/L [S] | MIC (posaconazole): 0.5 mg/L [R] | MIC (caspofungin): 0.03 mg/L [S] | MIC (voriconazole): ≥ 8 mg/L [R] | MIC (amphotericin B): 1 mg/L [S] | MIC (flucytosine): ≤ 0.06 mg/L [S] | MIC (fluconazole): 256 mg/L [R]

Candida tropicalis isolate 435 (ERG11 copies: 2, Erg11p: no key change)
MIC (itraconazole): 0.12 mg/L [S] | MIC (micafungin): 0.03 mg/L [S] | MIC (anidulafungin): 0.12 mg/L [S] | MIC (posaconazole): 0.12 mg/L [S] | MIC (caspofungin): 0.03 mg/L [S] | MIC (voriconazole): 0.06 mg/L [S] | MIC (amphotericin B): 1 mg/L [S] | MIC (flucytosine): ≤ 0.06 mg/L [S] | MIC (fluconazole): 1 mg/L [S]

Candida tropicalis isolate 436 (ERG11 copies: 2, Erg11p: no key change)
MIC (itraconazole): 0.06 mg/L [S] | MIC (micafungin): 0.03 mg/L [S] | MIC (anidulafungin): 0.06 mg/L [S] | MIC (posaconazole): 0.06 mg/L [S] | MIC (caspofungin): 0.06 mg/L [S] | MIC (voriconazole): 0.03 mg/L [S] | MIC (amphotericin B): 1 mg/L [S] | MIC (flucytosine): ≤ 0.06 mg/L [S] | MIC (fluconazole): 0.5 mg/L [S]

Candida tropicalis isolate 437 (ERG11 copies: 2, Erg11p: no key change)
MIC (itraconazole): 0.03 mg/L [S] | MIC (micafungin): 0.015 mg/L [S] | MIC (anidulafungin): ≤ 0.015 mg/L [S] | MIC (posaconazole): 0.015 mg/L [S] | MIC (caspofungin): 0.03 mg/L [S] | MIC (voriconazole): ≤ 0.008 mg/L [S] | MIC (amphotericin B): 0.5 mg/L [S] | MIC (flucytosine): ≤ 0.06 mg/L [S] | MIC (fluconazole): 0.25 mg/L [S]

Candida tropicalis isolate 438 (ERG11 copies: 2, Erg11p: Y132F, S154F (heterozygous))
MIC (itraconazole): 0.5 mg/L [S] | MIC (micafungin): 0.03 mg/L [S] | MIC (anidulafungin): 0.12 mg/L [S] | MIC (posaconazole): 0.5 mg/L [R] | MIC (caspofungin): 0.03 mg/L [S] | MIC (voriconazole): 2 mg/L [R] | MIC (amphotericin B): 0.5 mg/L [S] | MIC (flucytosine): 0.12 mg/L [S] | MIC (fluconazole): 32 mg/L [R]

Candida tropicalis isolate 439 (ERG11 copies: 2, Erg11p: no key change)
MIC (itraconazole): 0.5 mg/L [S] | MIC (micafungin): 0.03 mg/L [S] | MIC (anidulafungin): 0.03 mg/L [S] | MIC (posaconazole): 0.5 mg/L [R] | MIC (caspofungin): 0.03 mg/L [S] | MIC (voriconazole): 0.25 µg/mL | MIC (amphotericin B): 1 mg/L [S] | MIC (flucytosine): ≤ 0.06 mg/L [S] | MIC (fluconazole): 4 µg/mL

Candida tropicalis isolate 440 (ERG11 copies: 5, Erg11p: Y132F, S154F (heterozygous))
MIC (itraconazole): 1 mg/L [R] | MIC (micafungin): 0.06 mg/L [S] | MIC (anidulafungin): 0.12 mg/L [S] | MIC (posaconazole): 1 mg/L [R] | MIC (caspofungin): 0.25 mg/L [S] | MIC (voriconazole): ≥ 8 mg/L [R] | MIC (amphotericin B): 1 mg/L [S] | MIC (flucytosine): ≤ 0.06 mg/L [S] | MIC (fluconazole): 256 mg/L [R]

Candida tropicalis isolate 441 (ERG11 copies: 2, Erg11p: no key change)
MIC (itraconazole): 0.25 mg/L [S] | MIC (micafungin): 0.06 mg/L [S] | MIC (anidulafungin): 0.12 mg/L [S] | MIC (posaconazole): 0.25 mg/L [S] | MIC (caspofungin): 0.25 mg/L [S] | MIC (voriconazole): 0.25 µg/mL | MIC (amphotericin B): 0.5 mg/L [S] | MIC (flucytosine): ≤ 0.06 mg/L [S] | MIC (fluconazole): 2 mg/L [S]

Candida tropicalis isolate 442 (ERG11 copies: 2, Erg11p: no key change)
MIC (itraconazole): 0.06 mg/L [S] | MIC (micafungin): 0.03 mg/L [S] | MIC (anidulafungin): 0.03 mg/L [S] | MIC (posaconazole): 0.06 mg/L [S] | MIC (caspofungin): 0.03 mg/L [S] | MIC (voriconazole): 0.03 mg/L [S] | MIC (amphotericin B): 0.5 mg/L [S] | MIC (flucytosine): ≤ 0.06 mg/L [S] | MIC (fluconazole): 1 mg/L [S]

Candida tropicalis isolate 443 (ERG11 copies: 2, Erg11p: no key change)
MIC (itraconazole): 0.25 mg/L [S] | MIC (micafungin): 0.03 mg/L [S] | MIC (anidulafungin): 0.03 mg/L [S] | MIC (posaconazole): 0.25 mg/L [S] | MIC (caspofungin): 0.03 mg/L [S] | MIC (voriconazole): 0.06 mg/L [S] | MIC (amphotericin B): 1 mg/L [S] | MIC (flucytosine): ≤ 0.06 mg/L [S] | MIC (fluconazole): 1 mg/L [S]

Candida tropicalis isolate 444 (ERG11 copies: 2, Erg11p: no key change)
MIC (itraconazole): 0.25 mg/L [S] | MIC (micafungin): 0.03 mg/L [S] | MIC (anidulafungin): 0.12 mg/L [S] | MIC (posaconazole): 0.06 mg/L [S] | MIC (caspofungin): 0.06 mg/L [S] | MIC (voriconazole): 0.06 mg/L [S] | MIC (amphotericin B): 0.5 mg/L [S] | MIC (flucytosine): 0.12 mg/L [S] | MIC (fluconazole): 1 mg/L [S]

Candida tropicalis isolate 445 (ERG11 copies: 5, Erg11p: Y132F, S154F (heterozygous))
MIC (itraconazole): 0.5 mg/L [S] | MIC (micafungin): 0.03 mg/L [S] | MIC (anidulafungin): 0.12 mg/L [S] | MIC (posaconazole): 1 mg/L [R] | MIC (caspofungin): 0.06 mg/L [S] | MIC (voriconazole): ≥ 8 mg/L [R] | MIC (amphotericin B): 1 mg/L [S] | MIC (flucytosine): ≤ 0.06 mg/L [S] | MIC (fluconazole): 256 mg/L [R]

Candida tropicalis isolate 446 (ERG11 copies: 2, Erg11p: no key change)
MIC (itraconazole): 0.12 mg/L [S] | MIC (micafungin): 0.015 mg/L [S] | MIC (anidulafungin): ≤ 0.015 mg/L [S] | MIC (posaconazole): 0.06 mg/L [S] | MIC (caspofungin): 0.03 mg/L [S] | MIC (voriconazole): 0.06 mg/L [S] | MIC (amphotericin B): 0.5 mg/L [S] | MIC (flucytosine): ≤ 0.06 mg/L [S] | MIC (fluconazole): 1 mg/L [S]

Candida tropicalis isolate 447 (ERG11 copies: 2, Erg11p: no key change)
MIC (itraconazole): 0.25 mg/L [S] | MIC (micafungin): 0.03 mg/L [S] | MIC (anidulafungin): 0.25 mg/L [S] | MIC (posaconazole): 0.12 mg/L [S] | MIC (caspofungin): 0.12 mg/L [S] | MIC (voriconazole): 2 mg/L [R] | MIC (amphotericin B): 0.25 mg/L [S] | MIC (flucytosine): ≤ 0.06 mg/L [S] | MIC (fluconazole): 32 mg/L [R]

Candida tropicalis isolate 448 (ERG11 copies: 7, Erg11p: Y132F, S154F (heterozygous))
MIC (itraconazole): 2 mg/L [R] | MIC (micafungin): 0.015 mg/L [S] | MIC (anidulafungin): 0.03 mg/L [S] | MIC (posaconazole): 1 mg/L [R] | MIC (caspofungin): 0.06 mg/L [S] | MIC (voriconazole): > 8 mg/L [R] | MIC (amphotericin B): 0.5 mg/L [S] | MIC (flucytosine): ≤ 0.06 mg/L [S] | MIC (fluconazole): 1020 mg/L [R]
